From the supplement of paper PMC10369915
Some of the results follow. No stated cut-off is given here; in the data, active = 3.2 or more and inactive = the rest. The signal is at background level for most entries.

Target: SHP2 C-SH2 domain E139D
Assay: enrichment score (SH2-bound / input frequency) (ratio); bacterial display of known human phosphotyrosine sites (pTyr-Var adds point mutants) read by sequencing; higher = stronger binding; tyrosines were phosphorylated by kinases first
Settings: peptide library: pTyr-Var
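Further: displayed peptides selected on beads carrying the immobilized SH2 domain, with library peptides lacking any tyrosine serving as negative controls.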

Enrichment score, inactive:
PPVVNYEQDAR [FER_Y402_E404Q] 0.673, NRDNTYNRVSE [FGA_Y127] 0.403, NVVNEYSSELE [FGB_Y172] 1.03, SSVKLYRVYCD [FGB_Y266_P265L] 0.919, SSVKLYRVFCD [FGB_Y266_P265L_YF] 0.749, KPFRVYCDMNT [FGB_Y269_YF] 0.669, NETNKYQISVN [FGB_Y368_A365T] 1.03, MFFSTYDRDND [FGB_Y408] 1.29, WKESWYSMRKM [FGB_Y475_G472E] 1.15, WKGSWYSMKKM [FGB_Y475_R478K] 1.73, ISGGGYRARPA [FGB_Y71] 0.531, IEENGYNTFAS [FGF10_Y161_YF] 0.64, FASALYRQRRS [FGF11_Y162_YF] 0.211, MNPPPYSQLLS [FGF23_Y154_F157L] 0.723, PHQTIYSALMI [FGF23_Y70] 0.571, PHQTIYGALMI [FGF23_Y70_S71G] 0.441, IALSKYGRVKW [FGF6_Y186_R191W] 2.28, TRSYDYMEGGD [FGF7_Y58] 0.637, GFKVRYATGSI [FGFR1_Y210_W213G_YF] 1.29

Target: SHP2 C-SH2 domain wild-type
Assay: as above
Settings: peptide library: pTyr-Var

Enrichment score, inactive:
PPVVNYEQDAR [FER_Y402_E404Q] 0.558, NRDNTYNRVSE [FGA_Y127] 0.592, NVVNEYSSELE [FGB_Y172] 0.72, SSVKLYRVYCD [FGB_Y266_P265L] 0.781, SSVKLYRVFCD [FGB_Y266_P265L_YF] 0.83, KPFRVYCDMNT [FGB_Y269_YF] 0.921, NETNKYQISVN [FGB_Y368_A365T] 0.753, MFFSTYDRDND [FGB_Y408] 1.07, WKESWYSMRKM [FGB_Y475_G472E] 1.12, WKGSWYSMKKM [FGB_Y475_R478K] 1.64, ISGGGYRARPA [FGB_Y71] 0.435, IEENGYNTFAS [FGF10_Y161_YF] 0.725, FASALYRQRRS [FGF11_Y162_YF] 0.406, MNPPPYSQLLS [FGF23_Y154_F157L] 0.765, PHQTIYSALMI [FGF23_Y70] 0.688, PHQTIYGALMI [FGF23_Y70_S71G] 0.834, IALSKYGRVKW [FGF6_Y186_R191W] 2.12, TRSYDYMEGGD [FGF7_Y58] 0.566, GFKVRYATGSI [FGFR1_Y210_W213G_YF] 1.07

Target: SHP2 N-SH2 domain L43F
Assay: as above
Settings: peptide library: pTyr-Var

Enrichment score, inactive:
PPVVNYEQDAR [FER_Y402_E404Q] 0.662, NRDNTYNRVSE [FGA_Y127] 0.542, NVVNEYSSELE [FGB_Y172] 0.719, SSVKLYRVYCD [FGB_Y266_P265L] 0.779, SSVKLYRVFCD [FGB_Y266_P265L_YF] 0.714, KPFRVYCDMNT [FGB_Y269_YF] 0.962, NETNKYQISVN [FGB_Y368_A365T] 0.823, MFFSTYDRDND [FGB_Y408] 1.34, WKESWYSMRKM [FGB_Y475_G472E] 1.04, WKGSWYSMKKM [FGB_Y475_R478K] 1.81, ISGGGYRARPA [FGB_Y71] 0.502, IEENGYNTFAS [FGF10_Y161_YF] 0.606, FASALYRQRRS [FGF11_Y162_YF] 0.227, MNPPPYSQLLS [FGF23_Y154_F157L] 0.805, PHQTIYSALMI [FGF23_Y70] 0.451, PHQTIYGALMI [FGF23_Y70_S71G] 0.809, IALSKYGRVKW [FGF6_Y186_R191W] 2.15, TRSYDYMEGGD [FGF7_Y58] 0.553, GFKVRYATGSI [FGFR1_Y210_W213G_YF] 1.27

Target: SHP2 N-SH2 domain T42A
Assay: as above
Settings: peptide library: pTyr-Var

Enrichment score, inactive:
PPVVNYEQDAR [FER_Y402_E404Q] 0.812, NRDNTYNRVSE [FGA_Y127] 0.402, NVVNEYSSELE [FGB_Y172] 0.805, SSVKLYRVYCD [FGB_Y266_P265L] 0.575, SSVKLYRVFCD [FGB_Y266_P265L_YF] 0.835, KPFRVYCDMNT [FGB_Y269_YF] 0.78, NETNKYQISVN [FGB_Y368_A365T] 0.689, MFFSTYDRDND [FGB_Y408] 1.38, WKESWYSMRKM [FGB_Y475_G472E] 0.943, WKGSWYSMKKM [FGB_Y475_R478K] 1.81, ISGGGYRARPA [FGB_Y71] 0.505, IEENGYNTFAS [FGF10_Y161_YF] 0.607, FASALYRQRRS [FGF11_Y162_YF] 0.239, MNPPPYSQLLS [FGF23_Y154_F157L] 0.668, PHQTIYSALMI [FGF23_Y70] 0.678, PHQTIYGALMI [FGF23_Y70_S71G] 0.771, IALSKYGRVKW [FGF6_Y186_R191W] 2.07, TRSYDYMEGGD [FGF7_Y58] 0.444, GFKVRYATGSI [FGFR1_Y210_W213G_YF] 1.05

Target: SHP2 N-SH2 domain T52S
Assay: as above
Settings: peptide library: pTyr-Var

Enrichment score, inactive:
PPVVNYEQDAR [FER_Y402_E404Q] 0.658, NRDNTYNRVSE [FGA_Y127] 0.573, NVVNEYSSELE [FGB_Y172] 0.899, SSVKLYRVYCD [FGB_Y266_P265L] 0.82, SSVKLYRVFCD [FGB_Y266_P265L_YF] 0.673, KPFRVYCDMNT [FGB_Y269_YF] 0.803, NETNKYQISVN [FGB_Y368_A365T] 0.838, MFFSTYDRDND [FGB_Y408] 1.28, WKESWYSMRKM [FGB_Y475_G472E] 1.08, WKGSWYSMKKM [FGB_Y475_R478K] 1.86, ISGGGYRARPA [FGB_Y71] 0.551, IEENGYNTFAS [FGF10_Y161_YF] 0.556, FASALYRQRRS [FGF11_Y162_YF] 0.204, MNPPPYSQLLS [FGF23_Y154_F157L] 0.78, PHQTIYSALMI [FGF23_Y70] 0.395, PHQTIYGALMI [FGF23_Y70_S71G] 0.711, IALSKYGRVKW [FGF6_Y186_R191W] 2.2, TRSYDYMEGGD [FGF7_Y58] 0.499, GFKVRYATGSI [FGFR1_Y210_W213G_YF] 1.27

Target: SHP2 N-SH2 domain wild-type
Assay: as above
Settings: peptide library: pTyr-Var

Enrichment score, inactive:
PPVVNYEQDAR [FER_Y402_E404Q] 0.798, NRDNTYNRVSE [FGA_Y127] 0.48, NVVNEYSSELE [FGB_Y172] 1.29, SSVKLYRVYCD [FGB_Y266_P265L] 0.787, SSVKLYRVFCD [FGB_Y266_P265L_YF] 1.04, KPFRVYCDMNT [FGB_Y269_YF] 1.1, NETNKYQISVN [FGB_Y368_A365T] 0.52, MFFSTYDRDND [FGB_Y408] 1.09, WKESWYSMRKM [FGB_Y475_G472E] 1.46, WKGSWYSMKKM [FGB_Y475_R478K] 1.53, ISGGGYRARPA [FGB_Y71] 0.571, IEENGYNTFAS [FGF10_Y161_YF] 0.561, FASALYRQRRS [FGF11_Y162_YF] 0.24, MNPPPYSQLLS [FGF23_Y154_F157L] 0.781, PHQTIYSALMI [FGF23_Y70] 0.568, PHQTIYGALMI [FGF23_Y70_S71G] 0.996, IALSKYGRVKW [FGF6_Y186_R191W] 2.07, TRSYDYMEGGD [FGF7_Y58] 0.577, GFKVRYATGSI [FGFR1_Y210_W213G_YF] 1.03
